Laboratory results published in PubChem BioAssay AID1508623 (National Center for Advancing Translational Sciences (NCATS), 2021).
Among all 48,000 compounds or so, about 450 (0.94%) were called active. Inconclusive results, whose numbers are uncertain, are shown with a selection of clear calls. The call rests on the fitted dose curve; in most records, active means well fitted inhibition curve with a large enough effect; inconclusive means small, poorly fitted or top-dose-only effect; inactive means no such curve, though single readings can be large or run the other way. A potency beside an inconclusive call is a rough fit, not a confirmed value.

Test: Primary qHTS for Identification of Small Molecule Inhibitors of Huntingtin Promoter Activity; further: nearly all actives have a fitted effect of over 50% in size
Details: HEK293 HTT promoter firefly luciferase reporter (activity 0% = vehicle and -100% = no light), 24 h; activity change, negative = inhibition: at 57.5 µM (top of the series)
Outline: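 HEK293 luciferase promoter-reporter cells (2,500/well) plated 24 h, then compounds added at up to 57.5 uM final for 24 h at 37 °C. Firefly luminescence by Dual-Glo, normalized to vehicle (0%) and zero RLU (-100%).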
Potency means the concentration at half of the fitted maximal effect; tags describe the fitted curve by direction and shape.

SMILES	Potency	activity change, negative = inhibition
Cc1ccc(C)c(Nc2nn3c(=O)c4ccc(C(=O)NCc5cccs5)cc4nc3s2)c1	inconclusive: 0.891 µM [inhibitor, full curve, poor fit]	–
COc1ccc(NC(=O)NC(C)c2c(-n3cccc3)sc3c2CCN(C)C3)c(OC)c1 (stereo not given)	–	inactive: -18.3%
Cc1ccc2c(c1)N(C(=O)Nc1cccc3c1CCCC3)CC(C)O2 (stereo not given)	inconclusive: 31.6 µM [inhibitor, partial curve, poor fit]	–
COc1ccccc1NC(=O)c1cc(S(=O)(=O)NCCC2=CCCCC2)ccc1F	inconclusive: 28.2 µM [inhibitor, partial curve, poor fit]	–
CCc1ccc(NC(=O)N2CCN(C(=O)c3nsc4ccccc34)CC2)cc1	–	inactive: -28.2%
Cc1ccsc1CN1CCc2nc(N3CCN(c4ccccc4F)CC3)ncc2C1	inconclusive: 7.94 µM [inhibitor, partial curve]	–
CCOc1ccc(-c2noc(CSc3nnc(Cc4ccccc4)n3-c3cccc(C)c3)n2)cc1	inconclusive: 25.1 µM [inhibitor, single point]	–
Cc1ccc(-c2nc3cc(C(C)C)ccc3o2)cc1NC(=O)c1cc([N+](=O)[O-])ccc1N1CCOCC1	inconclusive: 1.26 µM [inhibitor, full curve]	–
COCCCNC(=O)C1CCCN(c2nn3cc(-c4ccc(C)cc4)nc3s2)C1 (stereo not given)	inconclusive: 22.4 µM [inhibitor, partial curve, poor fit]	–
CCc1cccc(NC(=O)c2ccc(CNS(=O)(=O)c3ccc4c(c3)C(C)(C)C(=O)N4C)cc2)c1	inconclusive: 20 µM [inhibitor, partial curve]	–
COc1ccccc1-c1cc2nc(C)c(CCC(=O)Nc3cc(C)ccc3C)c(C)n2n1	inconclusive: 39.8 µM [inhibitor, single point]	–
Cc1ccc(C)c(NC(=O)Nc2cccc(-c3cn4cccnc4n3)c2)c1	–	inactive: -3.09%
O=C(CSc1nc2c(c(=O)[nH]1)CN(Cc1ccc3c(c1)OCO3)CC2)Nc1ccc(F)c(F)c1	inconclusive: 35.5 µM [inhibitor, single point]	–
CCOc1ccc(CCNC(=O)c2cc3sc(CC)cc3n2C)cc1OCC	inconclusive: 28.2 µM [inhibitor, single point]	–
Cc1ccc(S(=O)(=O)N2CCC(n3c(C)nc4cccnc43)CC2)c(C)c1	inconclusive: 14.1 µM [inhibitor, partial curve, poor fit]	–
Cc1ccc(CNC(=O)c2ccc(-c3nc(CS(=O)(=O)c4ccc(C)cc4)c(C)o3)cc2)cc1	–	inactive: -20.8%
Cc1[nH]c2ccccc2c1SCCNC(=O)c1ccccc1F	inconclusive: 39.8 µM [inhibitor, single point]	–
O=C(NCc1ccccc1Cl)c1cc2cccc3c2n1CCS3	inconclusive: 28.2 µM [inhibitor, partial curve, poor fit]	–
CCOC(=O)C1CCCN(C(=O)c2[nH]c3ccccc3c2Sc2ccc(Cl)cc2)C1 (stereo not given)	inconclusive: 28.2 µM [inhibitor, single point]	–
O=C(Nc1ccc(F)c(Cl)c1)C1CCCN1S(=O)(=O)c1ccc(F)cc1 (stereo not given)	inconclusive: 28.2 µM [inhibitor, single point]	–

SMILES	Potency	activity change, negative = inhibition
CN1C(=O)c2ccccc2Sc2ccc(NC(=O)COc3ccc(Cl)cc3)cc21	inconclusive: 14.1 µM [inhibitor, single point]	–
Cc1cc(NC(=O)CN2C(=O)CSc3ccc(S(=O)(=O)N(C)C)cc32)ccc1Br	inconclusive: 25.1 µM [inhibitor, partial curve]	–
CC(C)c1nnc(NC(=O)c2nc(S(=O)(=O)Cc3ccccc3)ncc2Cl)s1	inconclusive: 39.8 µM [inhibitor, single point]	–
Cc1ccc(NC(=O)c2ccc(F)c(S(=O)(=O)N3CCc4ccccc4C3)c2)cc1F	inconclusive: 35.5 µM [inhibitor, partial curve]	–
COc1ccc(Cl)cc1NC(=O)CSc1cn(CC(=O)N2CCCC2)c2ccccc12	inconclusive: 39.8 µM [inhibitor, single point]	–
CCOC(=O)N1CCc2c(sc(NCc3sccc3C)c2C(=O)Nc2ccccc2OCC)C1	inconclusive: 31.6 µM [inhibitor, single point]	–
CCc1ccc(N2C(=O)CS(=O)(=O)C23C(=O)N(Cc2ccccc2F)c2ccccc23)cc1 (stereo not given)	inconclusive: 20 µM [inhibitor, single point]	–
COc1ccc(C2CC(=O)c3c([nH]c(C(=O)OCCOc4ccccc4)c3C)C2)cc1OC (stereo not given)	inconclusive: 3.98 µM [inhibitor, single point]	–
Cc1ccc(-c2noc(C3CC(=O)N(c4ccc5c(c4)OCCO5)C3)n2)cc1 (stereo not given)	–	inactive: 1.3%
Cc1cccc(C(=O)N(Cc2nc(-c3ccc(Cl)cc3)no2)C(C)C)c1	inconclusive: 25.1 µM [inhibitor, single point]	–
COC(=O)c1ccc(OC)c(Cn2c(=O)n(-c3ccc(C)cc3)c(=O)c3c2cnn3C)c1	inconclusive: 28.2 µM [inhibitor, single point]	–
O=C(Cn1c(=O)nc(-c2ccccc2)c2cc(Cl)ccc21)NCCCc1ccccc1	–	inactive: -8.89%
Cc1ccc(C)c(CSc2nc3ccncc3n2Cc2nc(-c3ccccc3Cl)oc2C)c1	inconclusive: 28.2 µM [inhibitor, single point]	–
Cc1ccc(S(=O)Cc2nc(-c3ccc(C(=O)NC(C)c4ccccc4)cc3)oc2C)cc1 (stereo not given)	inconclusive: 39.8 µM [inhibitor, partial curve, poor fit]	–
COc1cccc(CCNc2ncnc3c2nnn3C)c1	inconclusive: 39.8 µM [inhibitor, partial curve, poor fit]	–
O=C(CCCn1c(=O)c2ccccc2n(CC(=O)Nc2ccc(F)cc2F)c1=O)NCc1ccccc1Cl	–	inactive: -19.4%
CC(=O)c1ccc(NC(=O)CSc2ccc3nc(-c4ccccc4)cn3n2)cc1	inconclusive: 39.8 µM [inhibitor, single point]	–
Cc1ccc(-c2cc(C(=O)N3CCN(S(=O)(=O)c4ccc(Br)s4)CC3)[nH]n2)c(C)c1	inconclusive: 15.8 µM [inhibitor, partial curve, poor fit]	–
CN(C)c1ccc(CNC(=O)C(Cc2ccccc2)NS(=O)(=O)c2ccc3c(c2)oc(=O)n3C)cc1 (stereo not given)	–	inactive: -15.1%
CC(NC(=O)c1cc2sccc2n1Cc1ccc(F)cc1)c1ccccc1 (stereo not given)	–	inactive: -13.7%

SMILES	Potency	activity change, negative = inhibition
COc1ccc(C(=O)Nc2ccc(-c3cc(C(F)(F)F)nn3-c3ccccc3)cc2)cc1OC	inconclusive: 39.8 µM [inhibitor, single point]	–
CCc1cccc(C)c1NS(=O)(=O)c1ccc(-n2cccn2)cc1	inconclusive: 39.8 µM [inhibitor, single point]	–
CC(=O)N1CCCc2cc(S(=O)(=O)NCc3ccc(OC(C)C)cc3)ccc21	inconclusive: 14.1 µM [inhibitor, partial curve]	–
CCOc1ccc(-c2nonc2NC(=O)c2oc3cc(Br)ccc3c2C)cc1	inconclusive: 3.55 µM [inhibitor, full curve, poor fit]	–
CCOc1ccccc1Nc1ccc2cc(S(=O)(=O)N3CCCCC3)ccc2n1	inconclusive: 39.8 µM [inhibitor, single point]	–
Cc1cc(NC(=O)CN(c2cccc(C)c2C)S(=O)(=O)c2ccccc2)ccc1Br	inconclusive: 35.5 µM [inhibitor, single point]	–
COc1ccc(CCC(=O)NCc2ccc3c(c2)CCN3C(=O)c2cccc(C)c2)cc1	inconclusive: 35.5 µM [inhibitor, partial curve, poor fit]	–
CCOC(=O)c1[nH]c(C)c(C(=O)NCc2ccc(F)cc2)c1C	–	inactive: -36.7%
CCc1ccc(CNC(=O)C2CCN(c3nnc(-n4c(C)ccc4C)s3)CC2)cc1	inconclusive: 20 µM [inhibitor, partial curve]	–
O=C(O)c1cccnc1Nc1cccc(C(F)(F)F)c1	inactive	–
CC(=O)Oc1ccc2c(c1)CC[C@@H]1[C@@H]2CC[C@]2(C)[C@@H](O)CC[C@@H]12	–	inactive: -4.85%
COc1ccc(NC(=O)C2CCCN2S(=O)(=O)c2ccc3c(c2)CCCC(=O)N3)cc1Cl (stereo not given)	inconclusive: 44.7 µM [inhibitor, partial curve, poor fit]	–
O=C(CCS(=O)(=O)c1nc(-c2cccs2)cc(C(F)(F)F)n1)Nc1cccc(O)c1	inconclusive: 39.8 µM [inhibitor, single point]	–
O=C(NCCCN1CCN(c2cccc(Cl)c2)CC1)c1nnc(Cc2ccc(F)cc2Cl)o1	inconclusive: 22.4 µM [inhibitor, single point]	–
CCc1ccc(S(=O)(=O)c2cnc(SCC(=O)Nc3ccc(OC)cc3OC)[nH]c2=O)cc1	–	inactive: 9%
CC1CCC(NC(=O)CCc2cn(Cc3ccc(F)cc3)c3ccccc23)CC1 (stereo not given)	inconclusive: 39.8 µM [inhibitor, single point]	–
COc1ccc(NC(=O)c2nc(S(=O)(=O)Cc3ccc(C)cc3)ncc2Cl)cc1	–	inactive: 24.3%
COc1cc2c(cc1OC)C(COc1ccc(C(C)C)cc1)N(C(=O)COc1ccccc1)CC2 (stereo not given)	inconclusive: 28.2 µM [inhibitor, single point]	–
COC(=O)CN1C(=O)C(C)(C)c2cc(S(=O)(=O)Nc3ccc(C(C)C)cc3)ccc21	inconclusive: 1.78 µM [inhibitor, partial curve, poor fit]	–
Cc1ccc(C)c(CN2C(=O)C(O)(c3c[nH]c4ccccc34)c3ccccc32)c1 (stereo not given)	inconclusive: 31.6 µM [inhibitor, partial curve, poor fit]	–
